Source: PMC4336329 (PLoS ONE, 2015)
In all, about 310,000 compounds went through this assay and about 14,000 (4.5%) showed an effect of 50% or more. Effects have a minus sign here. Some of the results follow. Where a SMILES comes first, the peptide text is derived from it. The star is where a group is joined. Cbz = O=C(OCc1ccccc1)*
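Also: peak tail current of the secondary pulse compared with the same well before compound.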

The molecules below were run against human ether-à-go-go-related gene (hERG) potassium channel (human, UniProt Q12809) (assay: primary screen, population patch clamp on CHO cells stably expressing hERG).
Chain of human ether-à-go-go-related gene (hERG) potassium channel (Q12809 whole entry, looked up): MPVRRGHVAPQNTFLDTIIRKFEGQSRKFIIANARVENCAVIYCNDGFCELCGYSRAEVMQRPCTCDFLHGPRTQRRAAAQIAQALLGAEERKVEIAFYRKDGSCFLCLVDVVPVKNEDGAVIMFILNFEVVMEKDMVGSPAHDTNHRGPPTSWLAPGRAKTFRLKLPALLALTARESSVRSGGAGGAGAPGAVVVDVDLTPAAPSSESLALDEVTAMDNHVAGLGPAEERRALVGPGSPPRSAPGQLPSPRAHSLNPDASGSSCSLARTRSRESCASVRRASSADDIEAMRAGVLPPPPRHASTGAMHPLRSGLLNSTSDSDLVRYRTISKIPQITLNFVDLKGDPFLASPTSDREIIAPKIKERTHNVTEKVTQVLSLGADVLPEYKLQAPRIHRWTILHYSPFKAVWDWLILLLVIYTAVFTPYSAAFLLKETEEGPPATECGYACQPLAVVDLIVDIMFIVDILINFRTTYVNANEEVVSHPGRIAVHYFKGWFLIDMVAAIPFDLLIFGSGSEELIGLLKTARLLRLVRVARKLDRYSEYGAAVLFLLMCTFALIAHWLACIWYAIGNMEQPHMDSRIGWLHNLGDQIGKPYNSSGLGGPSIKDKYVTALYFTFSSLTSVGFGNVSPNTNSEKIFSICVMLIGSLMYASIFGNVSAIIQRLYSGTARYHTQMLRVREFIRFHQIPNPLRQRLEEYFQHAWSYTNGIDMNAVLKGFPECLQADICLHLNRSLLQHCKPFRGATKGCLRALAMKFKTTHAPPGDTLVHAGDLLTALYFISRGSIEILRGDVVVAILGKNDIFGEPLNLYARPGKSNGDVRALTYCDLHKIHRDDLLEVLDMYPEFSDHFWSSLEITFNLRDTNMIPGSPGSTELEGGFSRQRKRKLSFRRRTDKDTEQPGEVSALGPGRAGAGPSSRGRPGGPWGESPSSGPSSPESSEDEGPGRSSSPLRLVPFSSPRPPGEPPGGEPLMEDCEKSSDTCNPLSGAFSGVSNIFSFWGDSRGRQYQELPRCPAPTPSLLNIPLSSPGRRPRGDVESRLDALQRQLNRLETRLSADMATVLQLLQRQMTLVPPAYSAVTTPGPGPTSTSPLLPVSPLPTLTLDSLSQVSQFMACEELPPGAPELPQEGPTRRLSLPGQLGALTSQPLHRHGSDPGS
In the case of `COc1ccc(OCCOC(=O)c2nc3nccc(C)n3n2)cc1`, the “hERG current change (%, negative = inhibition) at 10uM” value is reported as -3.15%. For `Cn1c(CCNC(=O)c2ccco2)nc2ccccc21`, the “hERG current change (%, negative = inhibition) at 10uM” value was -1.52%. `Cc1cnc(C(=O)OCC(=O)c2ccc(Br)s2)cn1` was tested, and the “hERG current change (%, negative = inhibition) at 10uM” value was 7.15%. `CC1(C(=O)O)CCC(C(=O)NNC(=O)c2ccccc2Cl)C1(C)C` (stereo not shown) was tested, and the “hERG current change (%, negative = inhibition) at 10uM” value was -5.75%. For `O=C1NC(=O)C(c2ccc(F)cc2)N1` (stereo not shown), the “hERG current change (%, negative = inhibition) at 10uM” value was 1.36%. In the case of `O=c1c(F)cn(C2CCCO2)c(=O)n1Cc1ccccc1F` (stereo not shown), the “hERG current change (%, negative = inhibition) at 10uM” value is reported as 1.34%. For `C=CCC1(CC=C)CCCN1C(=O)c1cc(COc2ccc(-n3cncn3)cc2)on1`, the “hERG current change (%, negative = inhibition) at 10uM” value was -46.1%. `COc1ccc(N(CC(=O)NCCSc2ccccn2)S(=O)(=O)c2ccccc2)cc1OC` was tested, and the “hERG current change (%, negative = inhibition) at 10uM” value was -3.38%. In the case of `O=C(NCCN1CCN(c2ccccc2)CC1)c1cccc(Br)c1`, the “hERG current change (%, negative = inhibition) at 10uM” value is reported as -60.2%. In the case of `COc1ccc(-c2[nH]ncc2CN(C)CC2CCCCO2)cc1F` (stereo not shown), the “hERG current change (%, negative = inhibition) at 10uM” value is reported as -30.8%. In the case of `C=CCN(c1ccc(C(=O)NC(C)C)cc1)S(C)(=O)=O`, the “hERG current change (%, negative = inhibition) at 10uM” value is reported as -8.06%. `CN(C)c1ccc(NS(=O)(=O)c2ccc(Cl)cc2)cc1` was tested, and the “hERG current change (%, negative = inhibition) at 10uM” value was 2.04%. For `CC(C)[C@H](NC(=O)OCc1ccccc1)C(=O)N[C@@H](Cc1c[nH]c2ccccc12)C(=O)O` (Cbz-Val-Trp-OH), the “hERG current change (%, negative = inhibition) at 10uM” value was 4.95%. For `COC(=O)c1ccc(OCC(O)CN2CCN(C(=O)c3ccco3)CC2)cc1.O=C(O)C(=O)O` (stereo not shown), the “hERG current change (%, negative = inhibition) at 10uM” value was -25.3%. For `COc1cccc(N2CCN(C(=O)c3ccc(-c4ccccc4)cc3)CC2)c1`, the “hERG current change (%, negative = inhibition) at 10uM” value was -49.5%. In the case of `CCCCn1nnc(NC(=O)C(c2ccccc2)c2ccccc2)n1`, the “hERG current change (%, negative = inhibition) at 10uM” value is reported as 1.18%. `CN(Cc1ccccc1)C(NC(=O)c1ccco1)C(Cl)(Cl)Cl` (stereo not shown) was tested, and the “hERG current change (%, negative = inhibition) at 10uM” value was -23.9%. With `CCCCC(=O)Nc1ccc(NC(=O)CC)cc1OC` the “hERG current change (%, negative = inhibition) at 10uM” value was 2.43%. For `Cc1ccc(C2(C)NC(=O)N(CC(=O)Nc3cc(C)on3)C2=O)cc1` (stereo not shown), the “hERG current change (%, negative = inhibition) at 10uM” value was -10.7%. In the case of `Br.COc1ccc(NC2=NCCCCC2)cc1`, the “hERG current change (%, negative = inhibition) at 10uM” value is reported as 19.5%. For `O=C(Nc1ccc(N2CCN(C(=O)c3ccccc3F)CC2)cc1)c1ncn[nH]1`, the “hERG current change (%, negative = inhibition) at 10uM” value was -17.4%. For `O=[N+]([O-])c1ccc2c(c1)nc1n2CCN(C2CCCCC2)C1`, the “hERG current change (%, negative = inhibition) at 10uM” value was -39.3%. `Cc1ccc(C)c(-n2nnnc2SCC(=O)NCC2CCCO2)c1` (stereo not shown) was tested, and the “hERG current change (%, negative = inhibition) at 10uM” value was -4.18%. In the case of `COc1cccc(Cn2cc(/C=N/NC(=O)c3cc(O)cc(O)c3)c3ccccc32)c1`, the “hERG current change (%, negative = inhibition) at 10uM” value is reported as 12.1%. For `CCN1CCN(c2ccc(NC(=O)c3ccc4c(c3)[nH]c(=O)n4Cc3ccc(F)cc3)cc2)CC1`, the “hERG current change (%, negative = inhibition) at 10uM” value was -4.37%. For `COc1ccc(CONS(=O)(=O)c2ccc(NC(C)=O)cc2)cc1Cl`, the “hERG current change (%, negative = inhibition) at 10uM” value was -29.1%. In the case of `COc1ccc(-c2nc3cc(C)ccn3c2NC(=O)c2ccccc2OC)cc1`, the “hERG current change (%, negative = inhibition) at 10uM” value is reported as 5.28%. With `COc1ccc(NC(=O)C2CC(=O)n3ncnc3N2)cc1` (stereo not shown) the “hERG current change (%, negative = inhibition) at 10uM” value was 5.39%. In the case of `Cc1c(C#N)c(N)nc(Cl)c1C#N`, the “hERG current change (%, negative = inhibition) at 10uM” value is reported as 25.9%. With `CC1=[N+]([O-])C(C)(C)CC(C)(C)c2ccccc21` the “hERG current change (%, negative = inhibition) at 10uM” value was 4.73%. With `COC(=O)c1ccccc1NC(=O)[C@@H]1CCC(=O)N1C1OC(=O)c2c1ccc(OC)c2OC` (stereo partly shown) the “hERG current change (%, negative = inhibition) at 10uM” value was 2.55%. With `CC1CCCC(C)N1C(=O)c1ccccc1Nc1ccc(SC(F)F)cc1` (stereo not shown) the “hERG current change (%, negative = inhibition) at 10uM” value was 11.9%. For `COc1ccc(CCNC(=O)[C@H](CCSC)NC(=O)N2CCn3c2nc2ccccc23)cc1OC`, the “hERG current change (%, negative = inhibition) at 10uM” value was 8.56%. With `CC1(OC(=O)c2cccs2)C(=O)C=C2C=C(c3ccc(C#N)cc3)OC=C2C1=O` (stereo not shown) the “hERG current change (%, negative = inhibition) at 10uM” value was 0.00128%. In the case of `COC(=O)c1ccccc1NC(=O)CN1CCCCC1`, the “hERG current change (%, negative = inhibition) at 10uM” value is reported as 9.99%. In the case of `Cc1ccc(-c2cnco2)cc1`, the “hERG current change (%, negative = inhibition) at 10uM” value is reported as 11.9%. For `O=C(CSC1=NS(=O)(=O)c2ccccc21)Nc1ccccc1`, the “hERG current change (%, negative = inhibition) at 10uM” value was 2.45%. `Cc1cc(NC(=O)c2ccco2)ccc1NC(=O)Cc1cccs1` was tested, and the “hERG current change (%, negative = inhibition) at 10uM” value was -11%. With `CCC(Sc1ccc2nnc(CCNS(=O)(=O)c3ccc(OC)cc3)n2n1)C(=O)OC` (stereo not shown) the “hERG current change (%, negative = inhibition) at 10uM” value was -10.7%. With `COc1ccc(CC(=O)c2ccc(O)cc2O)cc1OC` the “hERG current change (%, negative = inhibition) at 10uM” value was 2%. `O=C(O)c1ccc(F)c(S(=O)(=O)Nc2ccccc2Cl)c1` was tested, and the “hERG current change (%, negative = inhibition) at 10uM” value was -0.571%. With `NC(=O)CC(c1ccccc1)c1ccc2c(c1)OCO2` (stereo not shown) the “hERG current change (%, negative = inhibition) at 10uM” value was -0.772%. `O=C(NC(=S)Nc1ncc(Br)cc1Br)c1cncc(Br)c1` was tested, and the “hERG current change (%, negative = inhibition) at 10uM” value was 15.5%. With `COc1ccc(OCCCCc2c(C)n[nH]c2C)cc1.Cl` the “hERG current change (%, negative = inhibition) at 10uM” value was -11.5%. `CCCCN=C1NN=C(c2ccc(C)c(C)c2)CS1` was tested, and the “hERG current change (%, negative = inhibition) at 10uM” value was 8.1%. `Cc1nn(C)cc1NC(=O)CC12CC3CC(CC(C3)C1)C2` was tested, and the “hERG current change (%, negative = inhibition) at 10uM” value was -11.8%. In the case of `C(=N\Nc1nn2cnnc2c2ccccc12)/c1ccco1`, the “hERG current change (%, negative = inhibition) at 10uM” value is reported as 3.58%. `CCOC(=O)c1ccc(NC(=O)Cn2c(C)nc3c(sc(=S)n3CC)c2=O)cc1` was tested, and the “hERG current change (%, negative = inhibition) at 10uM” value was 17.5%. With `CCNC(=O)OCc1cn(-c2ccccc2)nn1` the “hERG current change (%, negative = inhibition) at 10uM” value was 23.4%. For `COc1ccc(CCCc2nnc(SCC(=O)Nc3ncc(C)s3)o2)cc1`, the “hERG current change (%, negative = inhibition) at 10uM” value was -1.3%. For `CC(=O)c1ccc(N2CC(C)(C)C2=O)cc1`, the “hERG current change (%, negative = inhibition) at 10uM” value was 14.4%. In the case of `COc1ccccc1C(=O)Nn1c(C2CCC2)nc2ccccc2c1=O`, the “hERG current change (%, negative = inhibition) at 10uM” value is reported as 1.56%. In the case of `O=C(N/N=C/c1ccc2c(c1)OCO2)C1CC1`, the “hERG current change (%, negative = inhibition) at 10uM” value is reported as -3.1%. In the case of `CC(=O)c1sc(NS(=O)(=O)c2ccc(C)cc2)nc1-c1ccccc1`, the “hERG current change (%, negative = inhibition) at 10uM” value is reported as 7.77%. In the case of `CCn1c(SCC(=O)N2CCC(C)CC2)nc2c(c1=O)SCC2`, the “hERG current change (%, negative = inhibition) at 10uM” value is reported as -7.67%. `COc1ccccc1-n1cc(C(=O)NCC(=O)N2CCN(c3ccccc3)CC2)c2ccccc2c1=O` was tested, and the “hERG current change (%, negative = inhibition) at 10uM” value was -32.3%. With `COc1ccc(CC(=O)Nc2c3c(nn2-c2cccc(C)c2C)CS(=O)C3)cc1` (stereo not shown) the “hERG current change (%, negative = inhibition) at 10uM” value was -7.27%. In the case of `O=[N+]([O-])c1ccc(N2CCCCC2)nc1N1CCCCC1`, the “hERG current change (%, negative = inhibition) at 10uM” value is reported as -2.43%.
